# Source: the supplement of paper PMC8728848
# The other results are listed elsewhere or left out.
# B1: Surfactant Protein D (Human); Neck + Carbohydrate Recognition Domain (NCRD) (Homo sapiens) (protein)
# chain: MLLFLLSALVLLTQPLGYLEAEMKTYSHRTMPSACTLVMCSSVESGLPGRDRDGREGPRGEKGDPGLPGAAGQAGMPGQAGPVGPKGDNGSVGEPGPKGDTGPSGPPGPPGVPGPAGREGALGKQGNIGPQGKPGPKGEAGPKGEVGAPGMQGSAGARGLAGPKGERGVPGERGVPGNTGAAGSAGAMGPQGSPGARGPPGLKGDKGIPGDKGAKGESGLPDVASLRQQVEALQGQVQHLQAAFSQYKKVELFPNGQSVGEKIFKTAQFVKPFTEAQLLCTQAGGQLASPRSAAENAALQQLVVAKNEAAFLSMTDSKTEGKFTYPTGESLVYSNWAPGEPNDDGGSEDCVEIFTNGKWNDAACGEKRLVVCEF
# Legend:
# Experiment in all cases: glycan array binding signal (z-score within array); higher = stronger binding
# Details in all cases: glycan notation: IUPAC condensed, linker removed; mutation: R343A
# Fuc(a1-2)Gal = target: Fuc(a1-2)Gal
# In short: (§1)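 The binding signal is a Z-score computed within each array. Data were drawn from 3228 arrays in the Consortium for Functional Glycomics database, restricted to those with a known protein sequence. Scores were averaged over arrays of the same protein sequence at different concentrations or buffers, and over linkers, and negative values can be taken as non-binding.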
# Fuc(a1-2)Gal(b1-3)GalNAc = target: Fuc(a1-2)Gal(b1-3)GalNAc
# In short: as §1
# [1] = target: Fuc(a1-2)Gal(b1-3)GalNAc(b1-3)Gal
# In short: as §1
# [2] = target: Fuc(a1-2)Gal(b1-3)GalNAc(b1-3)Gal(a1-4)Gal(b1-4)Glc
# In short: as §1
# [3] = target: Fuc(a1-2)Gal(b1-3)GalNAc(b1-4)[Neu5Ac(a2-3)]Gal(b1-4)Glc
# In short: as §1
# Fuc(a1-2)Gal(b1-3)GlcNAc = target: Fuc(a1-2)Gal(b1-3)GlcNAc
# In short: as §1
# [4] = target: Fuc(a1-2)Gal(b1-3)GlcNAc(b1-3)Gal(b1-4)Glc
# In short: as §1
# [5] = target: Fuc(a1-2)Gal(b1-3)[Fuc(a1-4)]GlcNAc
# In short: as §1
# Fuc(a1-2)Gal(b1-4)Glc = target: Fuc(a1-2)Gal(b1-4)Glc
# In short: as §1
# Fuc(a1-2)Gal(b1-4)Glc6S = target: Fuc(a1-2)Gal(b1-4)Glc6S
# In short: as §1
# Fuc(a1-2)Gal(b1-4)GlcNAc = target: Fuc(a1-2)Gal(b1-4)GlcNAc
# In short: as §1
# [6] = target: Fuc(a1-2)Gal(b1-4)GlcNAc(b1-3)Gal(b1-4)GlcNAc
# In short: as §1
# [7] = target: Fuc(a1-2)Gal(b1-4)GlcNAc(b1-3)Gal(b1-4)GlcNAc(b1-3)Gal(b1-4)GlcNAc
# In short: as §1
# [8] = target: Fuc(a1-2)Gal(b1-4)GlcNAc6S
# In short: as §1
# [9] = target: Fuc(a1-2)Gal(b1-4)[Fuc(a1-3)]GlcNAc
# In short: as §1
# [10] = target: Fuc(a1-2)Gal(b1-4)[Fuc(a1-3)]GlcNAc(b1-3)Gal(b1-4)[Fuc(a1-3)]GlcNAc
# In short: as §1
# [11] = target: Fuc(a1-2)Gal(b1-4)[Fuc(a1-3)]GlcNAc(b1-3)Gal(b1-4)[Fuc(a1-3)]GlcNAc(b1-3)Gal(b1-4)[Fuc(a1-3)]GlcNAc
# In short: as §1
# Fuc(a1-2)Gal6S(b1-4)Glc = target: Fuc(a1-2)Gal6S(b1-4)Glc
# In short: as §1
# [12] = target: Fuc(a1-2)Gal6S(b1-4)Glc6S
# In short: as §1
# [13] = target: Fuc(a1-2)Gal6S(b1-4)GlcNAc
# In short: as §1
# Fuc(a1-2)[Gal(a1-3)]Gal = target: Fuc(a1-2)[Gal(a1-3)]Gal
# In short: as §1
# [14] = target: Fuc(a1-2)[Gal(a1-3)]Gal(b1-3)GlcNAc
# In short: as §1
# [15] = target: Fuc(a1-2)[Gal(a1-3)]Gal(b1-4)Glc
# In short: as §1
# [16] = target: Fuc(a1-2)[Gal(a1-3)]Gal(b1-4)GlcNAc
# In short: as §1
# [17] = target: Fuc(a1-2)[Gal(a1-3)]Gal(b1-4)[Fuc(a1-3)]GlcNAc
# In short: as §1
# [18] = target: Fuc(a1-2)[Gal(a1-4)]Gal(b1-4)GlcNAc
# In short: as §1
# [19] = target: Fuc(a1-2)[GalNAc(a1-3)]Gal
# In short: as §1
# [20] = target: Fuc(a1-2)[GalNAc(a1-3)]Gal(b1-3)GlcNAc
# In short: as §1
# [21] = target: Fuc(a1-2)[GalNAc(a1-3)]Gal(b1-4)Glc
# In short: as §1
# [22] = target: Fuc(a1-2)[GalNAc(a1-3)]Gal(b1-4)GlcNAc
# In short: as §1
binder,measurement,setting,value
B1,glycan array binding signal (z-score),Fuc(a1-2)Gal,-0.154
same,glycan array binding signal (z-score),Fuc(a1-2)Gal(b1-3)GalNAc,-0.397
same,glycan array binding signal (z-score),[1],0.482
same,glycan array binding signal (z-score),[2],-0.236
same,glycan array binding signal (z-score),[3],-0.174
same,glycan array binding signal (z-score),Fuc(a1-2)Gal(b1-3)GlcNAc,-0.335
same,glycan array binding signal (z-score),[4],-0.397
same,glycan array binding signal (z-score),[5],-0.181
same,glycan array binding signal (z-score),Fuc(a1-2)Gal(b1-4)Glc,-0.306
same,glycan array binding signal (z-score),Fuc(a1-2)Gal(b1-4)Glc6S,-0.212
same,glycan array binding signal (z-score),Fuc(a1-2)Gal(b1-4)GlcNAc,-0.207
same,glycan array binding signal (z-score),[6],-0.224
same,glycan array binding signal (z-score),[7],-0.209
same,glycan array binding signal (z-score),[8],0.149
same,glycan array binding signal (z-score),[9],-0.193
same,glycan array binding signal (z-score),[10],-0.051
same,glycan array binding signal (z-score),[11],-0.243
same,glycan array binding signal (z-score),Fuc(a1-2)Gal6S(b1-4)Glc,-0.138
same,glycan array binding signal (z-score),[12],0.369
same,glycan array binding signal (z-score),[13],0.247
same,glycan array binding signal (z-score),Fuc(a1-2)[Gal(a1-3)]Gal,0.161
same,glycan array binding signal (z-score),[14],-0.057
same,glycan array binding signal (z-score),[15],-0.375
same,glycan array binding signal (z-score),[16],0.03
same,glycan array binding signal (z-score),[17],-0.191
same,glycan array binding signal (z-score),[18],-0.318
same,glycan array binding signal (z-score),[19],-0.181
same,glycan array binding signal (z-score),[20],-0.17
same,glycan array binding signal (z-score),[21],-0.255
same,glycan array binding signal (z-score),[22],-0.293
